Source: PMC4336329 (PLoS ONE, 2015)
Hit rate of the full screen: of about 310,000 compounds, about 2,200 (0.71%) showed an effect of 50% or more. The effect is printed as a negative number. The list shows a part of the results.

biological target: human ether-à-go-go-related gene (hERG) potassium channel (human, UniProt Q12809); experiment: primary screen, population patch clamp on CHO cells stably expressing hERG
Sequence (Q12809 whole entry, looked up): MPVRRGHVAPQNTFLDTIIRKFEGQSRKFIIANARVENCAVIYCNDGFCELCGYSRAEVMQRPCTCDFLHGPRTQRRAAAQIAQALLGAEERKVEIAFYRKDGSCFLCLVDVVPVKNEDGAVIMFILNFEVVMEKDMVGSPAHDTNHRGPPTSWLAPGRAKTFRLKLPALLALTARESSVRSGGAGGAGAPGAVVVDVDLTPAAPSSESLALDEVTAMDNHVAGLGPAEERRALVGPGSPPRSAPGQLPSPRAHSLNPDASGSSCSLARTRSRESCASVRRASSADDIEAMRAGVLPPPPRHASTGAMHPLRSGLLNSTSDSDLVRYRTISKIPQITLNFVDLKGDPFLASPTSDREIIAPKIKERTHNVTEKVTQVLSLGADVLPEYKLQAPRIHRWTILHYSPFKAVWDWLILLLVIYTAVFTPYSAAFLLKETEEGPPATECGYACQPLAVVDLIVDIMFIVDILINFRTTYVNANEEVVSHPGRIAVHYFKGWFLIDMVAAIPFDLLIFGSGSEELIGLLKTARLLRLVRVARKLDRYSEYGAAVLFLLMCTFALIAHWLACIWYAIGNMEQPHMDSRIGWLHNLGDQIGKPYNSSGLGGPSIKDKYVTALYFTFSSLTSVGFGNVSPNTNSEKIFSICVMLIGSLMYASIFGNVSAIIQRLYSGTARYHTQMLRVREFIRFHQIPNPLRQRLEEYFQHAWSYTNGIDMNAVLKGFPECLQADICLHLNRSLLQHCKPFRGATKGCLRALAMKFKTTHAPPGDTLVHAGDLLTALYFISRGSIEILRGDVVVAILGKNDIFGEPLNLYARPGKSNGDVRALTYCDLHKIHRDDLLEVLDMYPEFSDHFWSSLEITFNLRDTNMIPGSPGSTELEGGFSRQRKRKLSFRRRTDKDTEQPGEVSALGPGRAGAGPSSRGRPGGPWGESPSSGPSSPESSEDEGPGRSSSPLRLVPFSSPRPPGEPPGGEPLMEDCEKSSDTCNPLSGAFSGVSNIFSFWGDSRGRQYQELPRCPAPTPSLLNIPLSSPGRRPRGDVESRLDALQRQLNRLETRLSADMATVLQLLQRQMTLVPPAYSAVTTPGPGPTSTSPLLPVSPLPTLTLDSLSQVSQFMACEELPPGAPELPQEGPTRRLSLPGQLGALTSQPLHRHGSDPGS

Row | Compound | hERG current change (%, negative = inhibition) at 1uM
1 | CC(C)c1ccc(C2C3CSCC=C3C(C#N)=C(N)C2(C#N)C#N)cc1 (stereo not drawn) | 2.72%
2 | CC(C)C(=O)NNc1ccc(C(F)(F)F)cn1 | 20.8%
3 | CC1(c2ccccc2)CC(C)(C)n2c(O)c(C3=NC(=S)NC3=O)c3cccc1c32 (stereo not drawn) | 7.91%
4 | CCN(CC)C(=O)c1ccccc1NS(=O)(=O)c1cccs1 | -1.45%
5 | Cc1ccc(S(=O)(=O)Nc2ccc3oc(=O)sc3c2)c(C)c1 | 7.97%
6 | Cc1ccccc1CC(=O)Nc1ccc2c(c1)CCC2 | 16.2%
7 | O=C(O)CCNc1ccc(NCCC(=O)O)c2c1C(=O)c1ccccc1C2=O | 12.1%
8 | Nc1cc(OC(=O)c2cccs2)nn1S(=O)(=O)c1ccc(F)cc1 | -2.66%
9 | Cc1ccc2nc(N(CCCN(C)C)C(=O)c3ccc4c(c3)CCCC4)sc2c1.Cl | 8.94%
10 | COC(=O)c1ccccc1NC(=O)C(=O)NCC1CCCO1 (stereo not drawn) | 13.6%
11 | COc1ccc(C(=O)NC2CCSc3ccccc32)cc1S(=O)(=O)N1CCOCC1 (stereo not drawn) | 5.37%
12 | CCOc1ccc(S(=O)(=O)NCC2CCCO2)cc1NC(=O)c1ccccc1F (stereo not drawn) | 15.1%
13 | O=C(NCC1CC1)c1onc(CSc2ccc(F)c(F)c2)c1C(=O)NCC1CC1 | 10.6%
14 | CNC(=O)NC(=O)COC(=O)CCCSc1nc2ccccc2s1 | 14.6%
15 | CC(=O)OC(C)CS(=O)(=O)c1ccccc1 (stereo not drawn) | 15.2%
16 | CC1CCCC(NC(=O)COC(=O)c2ccc3ccccc3n2)C1C (stereo not drawn) | -0.662%
17 | CCOC(=O)N1CCC(N(CCN(C)C)C(=S)Nc2cccc(Cl)c2C)CC1 | 14.3%
18 | COc1ccccc1N/C=C(\C#N)c1nc2ccccc2[nH]1 | -7.19%
19 | O=C1N=C(N2CCOCC2)S/C1=C\c1cccnc1 | 10%
20 | COc1ccc(OC)c(NC(=O)CSc2nc3scc(C)c3c(=O)[nH]2)c1 | 17.4%
21 | Cn1ccnc1SC(C(=O)O)c1ccccc1 (stereo not drawn) | 14.9%
22 | Cc1ccc(-c2ccc(=O)n(CC(=O)NCCCN3CCCCC3C)n2)cc1 (stereo not drawn) | -4.56%
23 | CN(C)CCCC1(O)c2ccccc2C=Cc2ccccc21 | 8.67%

Row | Compound | hERG current change (%, negative = inhibition) at 1uM
24 | COc1ccc(C2NS(=O)(=O)OCC2C)cc1 (stereo not drawn) | 13.4%
25 | O=C1NC2(CCC3(CC2)OCCO3)NN1c1ccc(Cl)cc1 | 2.21%
26 | Cc1cccc(NC(=O)CN2CCCN(S(=O)(=O)c3ccc(Br)s3)CC2)c1 | 9.64%
27 | Cc1ccc(NC(=O)COC(=O)CCc2nc3ccccc3n2-c2ccccc2)c(C)c1 | 11.2%
28 | C/C(=N\NC(=O)c1nnn(-c2nonc2N)c1-c1ccccc1)c1ccco1 | 16.3%
29 | Cc1cccc(OCC(=O)NCCNC(=O)c2cccnc2)c1 | 16.4%
30 | Cc1cc(C)cc(N(CC(=O)NCc2ccc(F)cc2)C(=O)c2snc(C(N)=O)c2N)c1 | 13.8%
31 | Cn1c(=O)c2c(ncn2CC(=O)Nc2ccccc2Sc2ccccc2)n(C)c1=O | -0.764%
32 | Cc1ccc(NC(=O)C2CCCN2C(=O)NC2CCCCC2)c(C)c1 (stereo not drawn) | 9.71%
33 | Cc1ccccc1-n1nc(C)c2cc(C(=O)NCc3cccnc3)sc21 | -1.71%
34 | Cc1ncc(CO)c2c1Oc1nc(-c3ccccc3F)nc(SCC(=O)N(C)c3ccccc3)c1C2 | 11.4%
35 | Cc1cccc(N2CCN(C(=O)CCCn3c(=O)[nH]c4ccsc4c3=O)CC2C)c1 (stereo not drawn) | 13.8%
36 | COc1cc(/C=C/C(=O)OCC(=O)NC(=O)NC2CCCCC2C)ccc1OC(F)F (stereo not drawn) | 3.09%
37 | COc1ccc(/C=C/C(=O)OCC(=O)Nc2cccc(Oc3ccccc3)c2)c(OC)c1 | 4.6%
38 | CC(=O)c1ccc(NC(=O)CN2CCCC2)cc1 | 13.9%
39 | CCOC(=O)Cc1cnc(NC(=O)CSc2nc(C(C)C)cc(=O)[nH]2)s1 | 3.82%
40 | O=C(CN1C(=O)C2CCCCC2C1=O)Nc1cccc([N+](=O)[O-])c1 (stereo not drawn) | 5.59%
41 | N#Cc1cc(C(=O)c2ccccc2OCC(=O)Nc2ccccc2Cl)cn(C2CCCCC2)c1=O | 2.7%
42 | CC(C)CN1CCNC(=O)C1CC(=O)NCc1cnn(-c2cccc(F)c2)c1 (stereo not drawn) | 8.03%
43 | CC(=O)N1CCN(C(=S)NC(=O)c2c(-c3ccccc3Cl)noc2C)CC1 | 14.3%
44 | Cn1ncc(Cl)c(Oc2ccc(Cl)cc2)c1=O | -2.07%
45 | Cc1noc(C)c1NC(=O)NC(c1ccccc1)c1ccccc1 | 7.9%
46 | CC(C)(C)c1ccc(CN2C(=O)CN=C(c3ccccc3)c3ccccc32)cc1 | -2.62%

Row | Compound | hERG current change (%, negative = inhibition) at 1uM
47 | O=C(Cn1c(N2CCN(c3ccccc3)CC2)nc2ccccc21)c1ccccc1 | -15.2%
48 | Cc1cccc(NC(=O)CCN2C(=O)c3ccccc3C2=O)n1 | 12.6%
49 | CCOc1c(C=C(C#N)C#N)c2ccccc2n1CC | 15.2%
50 | COc1ccccc1NC(=O)CSc1nc2sc(C)c(C)c2c(=O)n1Cc1ccco1 | 12.2%
51 | O=C(N/N=C/c1cccnc1)c1cccc(NC(=O)c2ccc(Cl)cc2)c1 | 18.9%
52 | Cc1cc(C(=O)COc2ccc(C#N)cc2)c(C)n1-c1ccc2c(c1)OCO2 | 6.74%
53 | Cc1cccc(C(=O)N/N=C/c2ccc3c(c2)OCO3)n1 | -3.51%
54 | Cc1cc[n+](-c2[nH]c(=O)sc2/C=N/N=C(\[O-])c2ccncc2)cc1C | 10.4%
55 | Cc1cc(C)cc(CC(CC(=O)Nc2ccc(Cl)cc2)C(=O)O)c1 (stereo not drawn) | 11.5%
56 | O=C(NCC1CCCO1)c1cc2c([nH]c3ccccc32)c(-c2cccc(Cl)c2)n1 (stereo not drawn) | -3.28%
57 | CCC(C)NC(=O)Cn1nc(C(F)(F)F)c2c1CCC2 (stereo not drawn) | 7.51%
58 | CCN(CC)S(=O)(=O)c1ccc(C(=O)O)cc1 | 18.8%
59 | CCc1ccc2[nH]c(=O)c(CN(CCN3CCOCC3)C(=O)Nc3ccccc3F)cc2c1 | -7.22%
60 | O=C(Nc1ccc(N2CCN(C(=O)c3cccs3)CC2)cc1)c1ccc(F)cc1 | 10.3%
61 | CC(C)c1c(CN(C)C(C)Cc2ccccc2)n(C)n(-c2ccccc2)c1=O (stereo not drawn) | 5.6%
62 | CC(Oc1cccc(Cl)c1)C(=O)NCCCCc1ccccc1 (stereo not drawn) | 11.3%
63 | CN(C)/C=N/c1sc2c(c1C#N)CCC2 | 6.5%
64 | COc1cc(C(=S)N2CCCC2)ccc1O | 14.1%
65 | OCc1cccc[n+]1Cc1ccccc1.[Cl-] | 13%
66 | CSc1nsc(SC)c1C(=O)Nc1ccc(C(C)(C)C)cc1 | 9.74%
67 | Cc1ccc(S(=O)(=O)N(C)Cc2nc(-c3ccncc3)no2)cc1 | -2.19%
68 | Cc1cccc(C(C)n2nnc3ccccc32)c1O (stereo not drawn) | 11.7%
69 | CC1CCN(S(=O)(=O)c2ccc3c(ccn3CC(=O)O)c2)CC1 | 9.88%

Row | Compound | hERG current change (%, negative = inhibition) at 1uM
70 | Cc1nn(C(C)C(=O)NC2CCCCC2)c(=O)c2nn(-c3ccccc3)c(C)c12 (stereo not drawn) | 12.2%
71 | CC(=O)Nc1ccc(NC(=O)[C@@H](NC(=O)c2cccc(C)c2)C(C)C)cc1 | 14.4%
72 | O=C(NC1c2ccccc2-c2ccccc21)c1ccco1 | 8.22%
73 | COc1ccc(CN(C)Cc2c(O)ccc3cc(Br)ccc23)cc1OC | 1.69%
74 | O=c1[nH]c(O)c(C=NC2CCN(Cc3ccccc3)CC2)c(=O)[nH]1 | -11.1%
75 | Nc1c(C(=O)NCCN2CCOCC2)c2nc3ccccc3nc2n1-c1cccc(F)c1 | -0.179%
76 | CCNCc1nc2cc(OC)c(OC)cc2c(=O)[nH]1 | 0.317%
77 | COc1cccc(NC(=O)N2CCCC2C(=O)NCc2ccccc2)c1 (stereo not drawn) | 15.7%
78 | O=C(O)c1n[nH]c2c1CCCCC2 | -5.65%
79 | CCOC(=O)CNC(=O)CSc1nc(NCc2ccccc2)nc(N(C)C)n1 | 3.13%
80 | Cl.c1ccc2c(c1)nc1n2CCN1CCN1CCCC1 | 18.3%
81 | O=C(O)CSc1cc(C(=O)c2ccccc2O)cn2c(=O)c3c(-c4ccccc4)csc3nc12 | -6.74%
82 | CCOC(=O)c1c(N)sc(C(=O)N(C)C)c1C | 11.9%
83 | NC(=O)c1cccnc1Oc1cccc(Cl)c1 | 10.1%
84 | Cc1cccc(-c2nc(CS(=O)CC(=O)NC3CCCC(C)C3C)c(C)o2)c1 (stereo not drawn) | 14%
85 | S=c1[nH]nc(COc2ccc(Cl)cc2Cl)n1-c1ccccc1 | 13.9%
86 | C/C=C/n1ccnc1CC(O)(c1ccccc1)c1ccc(C)cc1 (stereo not drawn) | -7.16%
87 | Cc1ccc(CN(CC(=O)NC2CCCC2)C(=O)CSc2nnc(COc3ccccc3)o2)cc1 | 8.12%
88 | CN(c1ccc(C(=O)NCc2ccc3c(c2)OCO3)cc1)S(=O)(=O)c1ccccc1 | 14.2%
89 | CCCCN(CCCC)S(=O)(=O)c1c(C)[nH]c(=O)[nH]c1=O | 15.8%
90 | O=C(c1cc2c(s1)CCCC2)N1CCN(S(=O)(=O)c2ccccc2)CC1 | 1.08%
